The structures appear in SMILES notation. The campaign covered roughly 150,000 compounds. About 540 (0.36%) showed an effect of 50% or more. The list shows a part of the results.

By % Inhibition is commonly meant the relative decrease from the control value, in per cent.

The assay relates to Plasmodium falciparum. Nature of the assay: Primary screen in NF54 nanoGlo assay, in single point, at 2uM, 72h; a lower Z score goes with more inhibition. As to conditions: timepoint 72 hour. The class given is functional, Erythrocyte.
With `Cc1ccc(CNCc2cccnc2)c(OC[C@H]2CCOC2)c1`, the “% Inhibition” value was -10% and the Z score came out at 1.31.

Take `C[C@@]1(C(=O)NC2CCCCCCC2)CCC(=O)N1CCc1ccc(Cl)cc1`: the “% Inhibition” value is -10% and the Z score came to 1.28.

As to `CS(=O)(=O)N1C[C@H]2CN(C(=O)CCc3ccccc3)CC[C@@]2(CO)C1`, the “% Inhibition” value turned out to be 3% and the Z score is reported as -0.39.

As for `CCCc1cc(C(=O)N(C)CC[C@H]2CCCCO2)no1`, the “% Inhibition” value is given as 0% and the Z score is given as -0.09.

`CCC(=O)N(C)[C@@H](CO)c1cc(OC)ccc1Br`: the “% Inhibition” value is recorded as -4% and the Z score is 0.45.

With `CCn1cc(CCN2CCC(c3nc4cccc(C)c4o3)CC2)cn1`, the “% Inhibition” value is -7% and the Z score was 0.85.

As to `COC[C@H](NC(=O)N1CC=C(c2c(C)[nH]c3ccccc23)CC1)C1CC1`, the “% Inhibition” value is on record as -7% and the Z score is on record as 1.19.

In the case of `CCc1ncc(CN(C)S(C)(=O)=O)s1`, the “% Inhibition” value is on record as -2% and the Z score came to 0.25.

For `CN(C(=O)c1cnn(C(C)(C)C)c1)S(C)(=O)=O`, the “% Inhibition” value is reported as -12% and the Z score came out at 1.2.

`COc1ccccc1CNC(=O)C1CCN(S(=O)(=O)c2cc3c(cc2C)NC(=O)CO3)CC1`: the “% Inhibition” value is -4% and the Z score came out at 0.45.

`O=C(Nc1ccc2c(c1)OCO2)[C@@H](c1cccc(F)c1)N(Cc1ccc(F)cc1)C(=O)Cn1nnc2ccccc21`: the “% Inhibition” value worked out at 36% and the Z score is given as -4.11.

With `CC(C)c1cc(C(=O)N2CC[C@H](O)C2)cs1`, the “% Inhibition” value was -9% and the Z score turned out to be 1.54.

Consider `O=C(Cc1cn2cc(F)ccc2n1)Nc1ccc(Cl)cc1Cl`, for which the “% Inhibition” value is -12% and the Z score came to 1.47.

On to `Cc1ccc2c(Cl)c(C(=O)Nc3ccc(S(=O)(=O)N4CCCC[C@@H]4C)cc3)sc2c1`, for which the “% Inhibition” value is recorded as -12% and the Z score was 1.61.

As to `Cn1c(=O)[nH]c(=O)c2c1nc(N1CCc3ccccc3C1)n2CCCc1ccccc1`, the “% Inhibition” value is listed as -10% and the Z score is 1.95.

In the case of `Cc1c(Cl)ccc2c1N(C(=O)CCc1cnn(C)c1)CCC2`, the “% Inhibition” value is -1% and the Z score is on record as 0.15.

For the compound `CN1CCN(S(=O)(=O)c2cccc(Br)c2)c2ccccc2C1`, the “% Inhibition” value turned out to be 2% and the Z score is recorded as -0.36.

On to `COc1ccccc1CCN(C)C(=O)c1nc2c(s1)CCC2`, for which the “% Inhibition” value is on record as -6% and the Z score was 0.86.

`COc1cccc(NC(=O)c2nc(-c3cn(Cc4ccc(F)cc4)nn3)no2)c1`: the “% Inhibition” value is -10% and the Z score amounted to 1.97.

Consider `CCCn1ccnc1CN1CCNC(=O)[C@@H]1Cc1ccccc1`, for which the “% Inhibition” value was -5% and the Z score is recorded as 0.86.

`CCOC(=O)N1CCC(Nc2nc(C)c(C(=O)Nc3ccccc3)s2)CC1`: the “% Inhibition” value is reported as -8% and the Z score turned out to be 1.22.

Consider `CCOc1ccccc1CNC(=O)C1CCN(c2ncnc3c2nc2n3CCCCC2)CC1`, for which the “% Inhibition” value was -11% and the Z score is given as 1.83.

For the compound `Cc1ccc2c(c1)C(=O)N(C)[C@@H](c1cccc3cccnc13)N2`, the “% Inhibition” value is given as -2% and the Z score was found to be 0.43.

For the compound `c1cc(-c2nc([C@H]3CCOC3)no2)c2nccnc2c1`, the “% Inhibition” value is reported as -8% and the Z score was 1.53.

As for `Cc1ccc(S(=O)(=O)N(CC(=O)NCCOc2ccccc2)c2cccc(Cl)c2)cc1`, the “% Inhibition” value is recorded as -2% and the Z score is reported as 0.35.

Take `C=CCOCC(O)CN(Cc1c(C)nn(-c2ccccc2)c1Oc1ccc(F)cc1F)CC1CCCO1` (centres undefined): the “% Inhibition” value is reported as -1% and the Z score was found to be 0.07.

As for `Cc1nc2ccc(C(=O)N3CCC(c4ncon4)CC3)cc2o1`, the “% Inhibition” value was 3% and the Z score is given as -0.64.

With `O=C(Nc1nc2c(s1)CN(C(=O)[C@H]1CC(=O)N(c3ccccc3)C1)CC2)c1ccoc1`, the “% Inhibition” value came out at 4% and the Z score is given as -0.52.

With `CNC(=O)CCCC(=O)N1CCC[C@H](N(C)c2ccc(C)cc2)C1`, the “% Inhibition” value turned out to be 6% and the Z score was -0.88.

For the compound `COc1cc2c(NCc3nnc4n3CCCCC4)ccnc2cc1F`, the “% Inhibition” value turned out to be 6% and the Z score was -0.87.

Turning to `Cc1ccc(C(=O)OCC(=O)NC(=O)NCC(F)(F)F)c(O)c1`, the “% Inhibition” value came out at 33% and the Z score is recorded as -3.68.

Regarding `COC(=O)c1cccc(CCN=C(N(C)C)N(C)C)c1`, the “% Inhibition” value was -1% and the Z score amounted to 0.08.

As to `COC(=O)N1CN(C(=O)OC)c2ccccc21`, the “% Inhibition” value is on record as 4% and the Z score is recorded as -0.71.

In the case of `COc1ccc(F)cc1S(=O)(=O)N(CCn1ccc(C(F)(F)F)n1)C1CCCC1`, the “% Inhibition” value was found to be 0% and the Z score turned out to be 0.06.

On to `COc1cccc(-c2cnn(C)c2N)c1C(=O)N(C(C)C)C(C)C`, for which the “% Inhibition” value was -2% and the Z score is 0.23.

As for `CC(C)(C)OC(=O)N1CCC(CN2CCc3sccc3C2)CC1`, the “% Inhibition” value is reported as -8% and the Z score came to 1.59.

Regarding `Cn1ncc2cnn(C[C@H](O)c3ccccc3Br)c2c1=O`, the “% Inhibition” value is recorded as 2% and the Z score is -0.45.

For `O=C(c1cccn2c(=O)[nH]nc12)N(Cc1ccccc1)C1CCCCC1`, the “% Inhibition” value was found to be 2% and the Z score is recorded as -0.47.

With `CCOCC1CCN(c2nnc(C(F)(F)F)s2)CC1`, the “% Inhibition” value is -3% and the Z score was 0.6.

In the case of `C[C@@H](C(=O)N1CCOCC1CC(O)c1ccccc1)c1ccccc1` (some centres undefined), the “% Inhibition” value is on record as 16% and the Z score is on record as -2.06.

In the case of `COCCC(=O)Nc1c(C(=O)OC)n(CCc2c[nH]c3ccccc23)c2ncc(NC3CCC3)cc12`, the “% Inhibition” value is given as -2% and the Z score was 0.26.

Turning to `CCCn1ncnc1[C@H](C)NC(=O)CCc1cccc(F)c1`, the “% Inhibition” value is on record as -9% and the Z score turned out to be 1.06.

These data come from ChEMBL document CHEMBL4888484, “Replenishing the malaria drug discovery pipeline: Screening and hit evaluation of the MMV Hit Generation Library 1 (HGL1) against asexual blood stage Plasmodium falciparum ,using a nano luciferase reporter read-out” (2022).
